Results taken from paper PMC11995724, “Antibiotic target discovery by integrated phenotypic and activity-based profiling of electrophilic fragments” (Cell chemical biology, 2025).
Among all 3,200 compounds or so, about 75 (2%) showed an effect of 50% or more. This is one part of the list.

system: T1, S. aureus MSSA476; set-up: species or system S. aureus MSSA476 (TSB) or V. cholerae SAD30 (LB); 384-well bacterial growth screen at 25 uM, OD600 relative to DMSO control; details: relative growth, OD600, TSB; 25 µM; inhibitor
T1 construct: MSSA476

| Compound | % of control remaining |
| --- | --- |
| CC(C)Oc1ccccc1C=C(C#N)C(=O)Nc1ccc(Cl)cc1 [9-L20, N-(4-chlorophenyl)-2-cyano-3-[2-(propan-2-yloxy)phenyl]prop-2-enamide] | 108.464% |
| N#CC(=Cc1ccc(N2CCOCC2)cc1)C(=O)NCC1CCCO1 (centres unmarked) [9-O10, 2-cyano-3-[4-(morpholin-4-yl)phenyl]-N-[(oxolan-2-yl)methyl]prop-2-enamide] | 98.5768% |
| CNC(=O)c1cc(OC2CCN(C(=O)C(C)Cl)C2)ccn1 (centres unmarked) [7-G03, 4-{[1-(2-chloropropanoyl)pyrrolidin-3-yl]oxy}-N-methylpyridine-2-carboxamide] | 97.0173% |
| N#CC(=Cc1cccc(F)c1F)C(=O)NC(N)=O [8-H04, {2-cyano-2-[(2,3-difluorophenyl)methylidene]acetyl}urea] | 101.909% |
| CSc1ccc(C(=O)CCl)cc1 [10-E07, 2-chloro-1-[4-(methylsulfanyl)phenyl]ethan-1-one] | 2.1875% |
| CCNC(=O)C(C#N)=Cc1ccc(OC(F)F)cc1 [8-E05, 2-cyano-3-[4-(difluoromethoxy)phenyl]-N-ethylprop-2-enamide] | 113.527% |
| CC(Cl)C(=O)Nc1c(Cl)cc(Cl)cc1Cl (centres unmarked) [6-K09, 2-chloro-N-(2,4,6-trichlorophenyl)propanamide] | 95.2683% |
| O=C(NC1CCCN(C(=O)CCl)C1)c1cc2ccccc2o1 (centres unmarked) [5-D05, N-[1-(2-chloroacetyl)piperidin-3-yl]-1-benzofuran-2-carboxamide] | 87.796% |
| C=CC(=O)N1Cc2ccccc2C[C@@H]1C(=O)NC1CC1 [2-G06, (3R)-N-cyclopropyl-2-(prop-2-enoyl)-1,2,3,4-tetrahydroisoquinoline-3-carboxamide] | 100.261% |
| C=CC(=O)NCc1cccc2c1OCO2 [1-E07, N-[(1,3-dioxaindan-4-yl)methyl]prop-2-enamide] | 104.791% |
| C=CC(=O)N1CCCC(CNS(=O)(=O)C2CC2)C1 (centres unmarked) [3-G21, N-{[1-(prop-2-enoyl)piperidin-3-yl]methyl}cyclopropanesulfonamide] | 121.898% |
| C=CC(=O)NCCC(=O)N1CCC(C)(C)S(=O)(=O)CC1 [3-G19, N-[3-(7,7-dimethyl-1,1-dioxo-1lambda6,4-thiazepan-4-yl)-3-oxopropyl]prop-2-enamide] | 120.505% |
| C=CC(=O)NCCn1cc(C2CCOC2)cn1 (centres unmarked) [2-L09, N-{2-[4-(oxolan-3-yl)-1H-pyrazol-1-yl]ethyl}prop-2-enamide] | 121.497% |
| Cc1cc(C(=O)CCl)c(C)n1C(c1ccccc1)c1ccccc1 [10-I08, 2-chloro-1-[1-(diphenylmethyl)-2,5-dimethyl-1H-pyrrol-3-yl]ethan-1-one] | 140.625% |
| C=CC(=O)N1CCC(C(=O)N2CCC(CC(N)=O)C2)CC1 (centres unmarked) [2-J14, 2-{1-[1-(prop-2-enoyl)piperidine-4-carbonyl]pyrrolidin-3-yl}acetamide] | 126.023% |
| CCCCNC(=O)C(C#N)=Cc1c(Cl)nc2ccccn12 [9-O09, N-butyl-3-{2-chloroimidazo[1,2-a]pyridin-3-yl}-2-cyanoprop-2-enamide] | 99.7753% |
| CC(Cl)C(=O)N1CCN(c2cc(-c3ccccc3F)n[nH]2)CC1 (centres unmarked) [6-N20, 2-chloro-1-{4-[3-(2-fluorophenyl)-1H-pyrazol-5-yl]piperazin-1-yl}propan-1-one] | 94.9268% |
| Cl.O=C(CCl)NC1(c2nc(-c3ccccc3)c[nH]2)CCCC1 [7-J08, 2-chloro-N-[1-(4-phenyl-1H-imidazol-2-yl)cyclopentyl]acetamide hydrochloride] | 106.122% |
| C=CC(=O)N1CCn2c(cnc2C(F)(F)F)C1 [3-B16, 1-[3-(trifluoromethyl)-5H,6H,7H,8H-imidazo[1,5-a]pyrazin-7-yl]prop-2-en-1-one] | 133.043% |
| CC(C)NC(=O)C(C#N)=Cc1ccc(-c2ccccc2F)o1 [8-K18, 2-cyano-3-[5-(2-fluorophenyl)furan-2-yl]-N-(propan-2-yl)prop-2-enamide] | 83.9834% |
| Cn1ccc(NC(=O)C(C#N)=Cc2ncccc2C(F)(F)F)n1 [8-F17, 2-cyano-N-(1-methyl-1H-pyrazol-3-yl)-3-[3-(trifluoromethyl)pyridin-2-yl]prop-2-enamide] | 113.859% |
| N#CC(=Cc1ccc(Cl)cc1)C(N)=O [8-L21, 3-(4-chlorophenyl)-2-cyanoprop-2-enamide] | 104.896% |

| Compound | % of control remaining |
| --- | --- |
| C=CC(=O)NCc1nc(C(=O)O)c(C)s1 [1-K03, 5-methyl-2-[(prop-2-enamido)methyl]-1,3-thiazole-4-carboxylic acid] | 90.022% |
| O=C(CCl)NC1CCSc2ccc(F)cc21 (centres unmarked) [5-M09, 2-chloro-N-(6-fluoro-3,4-dihydro-2H-1-benzothiopyran-4-yl)acetamide] | 95.8106% |
| O=C(CCl)NCc1ccccc1OC1CCCC1 [6-C14, 2-chloro-N-{[2-(cyclopentyloxy)phenyl]methyl}acetamide] | 100.732% |
| COCc1nnc([C@]23CC[C@H]2CCN3C(=O)C(C)Cl)o1 (mixture of isomers) [5-H15, rac-2-chloro-1-[(1R,5R)-1-[5-(methoxymethyl)-1,3,4-oxadiazol-2-yl]-2-azabicyclo[3.2.0]heptan-2-yl]propan-1-one] | 104.918% |
| N#CC(=Cc1ccc(N)cc1)C(=O)N1CCCC1 [9-E14, 3-(4-aminophenyl)-2-(pyrrolidine-1-carbonyl)prop-2-enenitrile] | 98.2772% |
| CCC(=O)Nc1ccc(C(=O)CCl)cc1 [10-C03, N-[4-(2-chloroacetyl)phenyl]propanamide] | 1.5625% |
| CC(Cl)C(=O)NC[C@H]1CCCN(C2CC2)[C@@H]1c1ccnn1C (mixture of isomers) [6-P20, rac-2-chloro-N-{[(2R,3S)-1-cyclopropyl-2-(1-methyl-1H-pyrazol-5-yl)piperidin-3-yl]methyl}propanamide] | 103.805% |
| CC(C)NC(=O)C(C#N)=Cc1ccc(Cl)c(Cl)c1 [9-M07, 2-cyano-3-(3,4-dichlorophenyl)-N-(propan-2-yl)prop-2-enamide] | 103.071% |
| C=CC(=O)N1CCC(C(=O)NCc2ccc(S(N)(=O)=O)cc2)CC1 [3-N10, 1-(prop-2-enoyl)-N-[(4-sulfamoylphenyl)methyl]piperidine-4-carboxamide] | 121.898% |
| CC(Cl)C(=O)NCCc1ccc[nH]1 (centres unmarked) [7-L09, 2-chloro-N-[2-(1H-pyrrol-2-yl)ethyl]propanamide] | 113.972% |
| CC(Cl)C(=O)NCCN1CCn2nccc2C1 (centres unmarked) [5-D13, 2-chloro-N-(2-{4H,5H,6H,7H-pyrazolo[1,5-a]pyrazin-5-yl}ethyl)propanamide] | 98.3607% |
| C=CC(=O)N1CCOCC1CC(=O)c1ccco1 (centres unmarked) [2-M17, 1-{3-[2-(furan-2-yl)-2-oxoethyl]morpholin-4-yl}prop-2-en-1-one] | 106.527% |
| NC(=O)c1cc(-c2ccccc2)sc1NC(=O)CCl [6-M14, 2-(2-chloroacetamido)-5-phenylthiophene-3-carboxamide] | 136.244% |
| Cc1ccccc1NC(=O)C(C#N)=Cc1c(Cl)nc2ccccn12 [9-I22, 3-{2-chloroimidazo[1,2-a]pyridin-3-yl}-2-cyano-N-(2-methylphenyl)prop-2-enamide] | 71.0112% |
| C=CC(=O)Nc1ccc(C(=O)N2CCCCC2c2noc(C)n2)cc1 (centres unmarked) [2-C20, N-{4-[2-(5-methyl-1,2,4-oxadiazol-3-yl)piperidine-1-carbonyl]phenyl}prop-2-enamide] | 99.913% |
| C=CC(=O)NCC1CS(=O)(=O)c2ccccc21 (centres unmarked) [3-J15, N-[(1,1-dioxo-2,3-dihydro-1lambda6-benzothiophen-3-yl)methyl]prop-2-enamide] | 119.808% |
| CCN(c1ccc(C(=O)CCl)cc1)S(C)(=O)=O [10-F04, N-[4-(2-chloroacetyl)phenyl]-N-ethylmethanesulfonamide] | 2.1875% |
| CC(C)OC(=O)c1ccc(NC(=O)C(C)Cl)cc1 (centres unmarked) [4-K08, propan-2-yl 4-(2-chloropropanamido)benzoate] | 110.148% |
| Cc1ccc(C)c(NC(=O)C(C#N)=Cc2cccn2C)c1 [8-M07, 2-cyano-N-(2,5-dimethylphenyl)-3-(1-methyl-1H-pyrrol-2-yl)prop-2-enamide] | 114.855% |
| CC(=O)Nc1ccsc1C=C(C#N)C(=O)Nc1ccc(F)cc1 [9-F14, 2-cyano-3-(3-acetamidothiophen-2-yl)-N-(4-fluorophenyl)prop-2-enamide] | 122.247% |
| Cc1cc(C(=O)O)ccc1N1C(=O)C=CC1=O [10-G22, 4-(2,5-dioxo-2,5-dihydro-1H-pyrrol-1-yl)-3-methylbenzoic acid] | 125.625% |
| C=CC(=O)NCC(F)(F)c1cccnc1 [1-O12, N-[2,2-difluoro-2-(pyridin-3-yl)ethyl]prop-2-enamide] | 116.747% |
